This is an account of results in the RNAGym collection of RNA variant scans (doi:10.1093/nar/gkz1192).

The source gives no read counts; variants with many changes may rest on few reads.

The labels stand for the following.
B1: CPEB3 Ribozyme (parent)
chain: UAACAGGGGGCCACAGCAGAAGCGUUCACGUCGCAGCCCCUGUCAGAUUCUGGUGAAUCUGCGAAUUCUGCUGUAUAUCUC

In this data set the parent is B1. Briefly: self-cleavage, relative activity (ratio to wild type); higher = more cleavage; in vitro, sequencing. A digest of the protocol:
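For each CPEB3 ribozyme variant, relative activity is its cleaved/total read fraction divided by the unmutated ribozyme's. Barcoded error-prone PCR libraries were transcribed by T7 RNA polymerase (5 hours, 37°C) and held in DNase I for 15 min before an EDTA stop, with cleavage occurring throughout. Template-switching reverse transcription and Illumina sequencing were used to read the RNAs. A 5-read minimum applied, and results are the mean of three batches.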
For the variant UAACAGGGGGCCACCGCAGAAGCGUUCACGUCGCAGCCCCCGUCAGAUUCUGGUGAAUCUGCGAAUUAUGCUGUAUAUCUC, the self-cleavage was 0.22.

As to UAACAGGGGGCCACCGCAGAAGCGUUCACCUCGCAGCCCCUGUCAGAUUCUGGUGAAUCUGCGAAUUCUGCUGUAUACCUC, the self-cleavage is 0.17. As to UAACAGGGGGCCACCGCGGAAACGUUCACGUCGCAGCCCCUGUCAGGUUCUGGUGAAUCUGCGAAUUCUGCUGUAUAUCUC, the self-cleavage is 0.31.

For the variant UAACAGGGGGCCAUAGCAGAAGCGUUCACGUCGCAGCCCCUGUCAGAUUCAGGAGAAUCUGCGAAUUCUGCUGUAUAUCUC, the self-cleavage came out at 0.76.

As for UAACAGGGGGCCACCGCAGAAGCGUCCACGUCGCAGCCCCUGUCAGAUUCUGGUGAAUCUGCGAAUUCAGCUAUAUAUCUC, the self-cleavage came out at 0.13.

As for UAACAGGGGGCCACCGCAGAAGCGUUCACGCCGCAGCCCCAGUCAGAUUCUGGCGAGUCUGCGGAUUCUGCCGUAUAUCUC, the self-cleavage was 0. UAACAGGGGGCCACGGCGGAAGCGUUCACGUCGCAGCCCCUGUCAGAUUCUGGUGAAUCUGCGGAUUCUGCUGUAUAUCUC: the self-cleavage is 0.6. In the case of UAACAGGGGGCCACGGCGGAAGCGUUCACCUCGCAGCCCCUGUCAGAUUCUGGUGAAUCUGCGAAUUCUGCUGUAUACCUC, the self-cleavage stood at 0.14. With UAACAGGGGGCCACCGCAGAAGCGUUCACGUCGCAGCCCCUGUCAGACUCAGGUGAAUCCGCAAAUUCCGCCGUAUAUCUC, the self-cleavage came to 0.14. Regarding UAACAGGGGGCCACCGCAGAGGCGUUCACGUCACAGCCCCUGUCAGAUUCUGGUGAAUCUGCGAAUUCUGCUGUACAUCUC, the self-cleavage was determined as 0.23. As to UAACAGGGGGCCACCGCAGAAGCGUUCACGUCGCAGCCCCUGUCAGAUCCUGGUGAAACUGCGAAUCCUGCUGUAUAUCUC, the self-cleavage stood at 0.14. With UAACAGGGGGCCACCGCAGAAGCGUUCACGCCGCAGCCCCUGUCAGAUUCUGGUGAAUCUGCGAAUUCAGCUGUAUACCUC the figure was 0.11; with UAACAGGGGGCCACCGCAGUAGCGUACACGCCGCAGCCCCUGUCAGAUUCUGGUGGAUCUGCGAAUUCUGCUGUAUACCCC, 0.03. As for UAACAGGGGGCCACCGCAGAAGCGUUCACGUCGCAGCCCCUGUCUGAUUCCGGUGAAUCUGCGAGUUCUGCUGUAUAUCCC, the self-cleavage amounted to 0.08. Turning to UAACAGGGGGCCACCGCAGAAGCGUUCACGUCGCAGCCCCUGUCGGAUUCUGGUGAAUCUGCUAAUUCCGCUGAAUAUCUC, the self-cleavage worked out at 0.22. UAACAGGGGGCCAUAGCAGAAGCGUACACGUCGCAGCCCCUGUCAGAUUCUGGUGAAUCUGCGGAUUCUGCUGUAUAUCUC: the self-cleavage amounted to 1.03. Turning to UAACAGGGGGCCACCGCAGAAGCGCUCACGUCGCGGCCCCUGUCAGAUACAGGUGAAUCUGCGAAUUCUGCUGUAUAUCUC, the self-cleavage was 0.1. UAACAGGGGGCCACCGCAGAAGCGUUCACGUCGCAGCCCCUGUCAGAUUCAGGUGAAUCUGUGAAUUCUGCUGUAUAUCUC: the self-cleavage turned out to be 0.07.

On to UAACAGGGGGCCACCGCAGAAGCGUUCACGUCGCAGCCCCUGUCAGAUUCUGGUGAAUCUGCCAAUCCUGCAGUAUAUCUC, for which the self-cleavage turned out to be 0.16. With UAACAGGGGGCCACCGCACAAGCGUUCACGUCGCAGCCCCUGCCAGAUUCUGGUGAAGCUGCGAAUUCUGCUGUAUAUACC, the self-cleavage is 0.

With UAACAGGGGGCCACGGCGGAAGCGUUCACGUCGCAGCCCCUGUCAUAUUAUGGUGAAUCUGCGAAUUCUGCUGUCUAUCUC, the self-cleavage is 0.32.

For the variant UAACAGGGGGCCAUAGCAGAAGCGUUCACGUCGCAGCCCCUGUCAGACUCUGGUGAAUCUGCGAAUUCUGCAGUAUAUCUC, the self-cleavage is 0.3. Consider UAACAGGGGGCCACCGCAGAAGCGUUCACGUCGCAGCCCCUGUCAGAUUCUGGUGAAUCUGCGAGUUCAGCAGUAUAUCUC, for which the self-cleavage is 0.14. On to UAACAGGGGGCCACCGCAGAAGCGUGCACGUCGCAGCCCCUGUCAGAUUCUGGUGAAUCUGCGAACUCUGCUGUAUAUCUC, for which the self-cleavage is 0.35. Turning to UAACAGGGGGCCACCGCUUAAGCGUUCACGUCGCAGCCCCUGUCAGAUUCUGGCGAAUCUGCGGAUUCUGCUGUAUAUCUC, the self-cleavage amounted to 0.09.

As for UAACAGGGGGCCACCGCAGAAGCGUUCACGUCGCAGACCUUGUCAGAUCCUGGUGAAUCAGCGAAUUCUGCUGUAUAUCUC, the self-cleavage amounted to 0.25. In the case of UAACAGGGGGCCACGGCUGAAGCGUUCACGUCGCAGCCCCUGUCUGAUUCCGGUGAAUCUGCGAAUUCUGCUGUAUAUCUC, the self-cleavage amounted to 0.21. On to UAACAGGGGGCCAUAGCAGAAGCGUUCACGUCGCAGCCCCUGUCAGAUUCAGGUGAACCUGGGAAUUCUGCUGUAUAUCUC, for which the self-cleavage turned out to be 0.64. With UAACAGGGGGCCAUAGCAGAAGCGUCCACGUCGCAGCCCCUGUCAGAUUCUGGCGAAUCUGCGAAUUCUGCUGUAUAUCUC, the self-cleavage is 0.55. In the case of UAACAGGGGGCCACCGCAGAAGCGCUCACGUCGCUGCCCCCGUCAGGUUCUGGUGAAUCUGCGAAUUCUGCUGUAUUUCUC, the self-cleavage came out at 0.03. On to UAACAGGGGGCCAUAGCAGAAGCGUACACGCCGCAGCCCCUGUCAGAUCCUGGUGAAUCUGCGAAUUCUGCUGUAUAUCUC, for which the self-cleavage turned out to be 0.12. With UAACAGGGGGCCACCGCAGAAGCGUUCACGUCGCAGCCCCUGCCAGAAUCUGGUGAAUCUGCGAAUUCUGCUGUAUAUCUC the figure was 0.21. With UAACAGGGGGCCAUAGCAGAAGCGUACACGUCGCAGCCCCUGUCAGAUUCUGGUGGAUCCGCGAAUUCUGCUGUAUAUCUC the figure was 0.34; with UAACAGGGGGCCACCGCAGAAGCGUUCACGCCGCAGCCCCUGUCAGAUUCUGGUGAAUCUGCGAAUUCUGCUGUAUACCUC, 0.63.
